This is an account of results in a collection of fitness landscapes (doi:10.1016/j.celrep.2020.107928).

Over roughly 81,000 sequences, “one-hybrid fitness for binding NBS DNA” has its median near -0.1; the highest 2% begin near 0.36. The list shows a part of the results.

The chains are these.
B1: Caulobacter ParB omega fusion; a variant is named by its letters at X, in order, B8GW30 (parent)
chain: MESVVVGEPGMSEGRRGLGRGLSALLGEVDAAPAQAPGEQLGGSREAPIEILQRNPDQPRRTFREEDLEDLSNSIREKGVLQPILVRPSPDTAGEYQIVAGERAWRAAQRAGLKTVPIMVRELDDLAVLEIGIIENVQRADLNVLEEALSYKVLMEKFERTQENIAQTIGKSXSHVANXMRLLXLPDEVQSYLVSGELTAXHARAIAAAADPVALAKQIIEGGLSVRETEALARKAPNLSAGKSKGGRPPRVKDTDTQALESDLSSVLGLDVSIDHRGSTGTLTITYATLEQLDDLCNRLTRGI

The variants in the assay derive from B1. Briefly: one-hybrid fitness for binding NBS DNA (the Noc-binding site; scaled: cognate 1, non-cognate 0); higher = stronger binding. As to conditions: with NBS DNA site. Summed up:
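Values were rescaled so that cognate is 1 and non-cognate is 0. Each is a fitness, the log change in a variant's read ratio to wild type from Illumina reads of plasmids before and after selection, with three replicate libraries pooled and variants under 10 reads dropped. Selection of the Caulobacter ParB libraries, four specificity codons randomised, used E. coli USO with a HIS3 reporter, site 19 bp from the promoter, on M9-minus-histidine with 0.1 mM IPTG and 5 mM 3-AT for 48 hours at 37°C.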
RNHE: the “one-hybrid fitness for binding NBS DNA” value was at most 0.2.
As for SSIG, the “one-hybrid fitness for binding NBS DNA” value was at most 0.2.
In the case of WQMS it was at most 0.2; in that of YMFS, at most 0.2; in that of QHVL, at most 0.2.
In the case of YSMW it was at most 0.2; in that of SCWE, at most 0.2; in that of YDKV, at most 0.2.
Turning to GMCN, the “one-hybrid fitness for binding NBS DNA” value was at most 0.2.
In the case of PSYE, the “one-hybrid fitness for binding NBS DNA” value was at most 0.2.
The value for PASA was at most 0.2.
RTQM: the “one-hybrid fitness for binding NBS DNA” value is at most 0.2.
For the variant GGLH, the “one-hybrid fitness for binding NBS DNA” value was at most 0.2.
The value for GCLR was at most 0.2; that for ANMM was at most 0.2; that for YFNG was at most 0.2.
Consider VKPT, for which the “one-hybrid fitness for binding NBS DNA” value was at most 0.2.
As to NQSL, the “one-hybrid fitness for binding NBS DNA” value is at most 0.2.
In the case of TTCT, the “one-hybrid fitness for binding NBS DNA” value is at most 0.2.
As for FKSW, the “one-hybrid fitness for binding NBS DNA” value was at most 0.2.
Regarding GRTD, the “one-hybrid fitness for binding NBS DNA” value is at most 0.2.
For IPRV, the “one-hybrid fitness for binding NBS DNA” value was at most 0.2.
In the case of SHFP it was at most 0.2; in that of VGGP, at most 0.2; in that of HRWC, at most 0.2.
Regarding LPKG, the “one-hybrid fitness for binding NBS DNA” value is at most 0.2.
The value for TQGF was at most 0.2; that for TLCH was at most 0.2; that for VSGL was at most 0.2.
The value for TALQ was at most 0.2; that for PEVK was at most 0.2; that for TPHL was at most 0.2.
Consider CSTT, for which the “one-hybrid fitness for binding NBS DNA” value was at most 0.2.
TWHK: the “one-hybrid fitness for binding NBS DNA” value is at most 0.2.
Consider TEFV, for which the “one-hybrid fitness for binding NBS DNA” value was at most 0.2.
On to TCRL, for which the “one-hybrid fitness for binding NBS DNA” value was at most 0.2.
Turning to IASL, the “one-hybrid fitness for binding NBS DNA” value was at most 0.2.
Take TNAI: the “one-hybrid fitness for binding NBS DNA” value is at most 0.2.
Take THDE: the “one-hybrid fitness for binding NBS DNA” value was at most 0.2.
Take RFVF: the “one-hybrid fitness for binding NBS DNA” value was at most 0.2.
Take PNTR: the “one-hybrid fitness for binding NBS DNA” value was at most 0.2.
As to RREK, the “one-hybrid fitness for binding NBS DNA” value was at most 0.2.
In the case of PMCG it was at most 0.2; in that of RGKK, at most 0.2; in that of MQAC, at most 0.2.
As to KRPQ, the “one-hybrid fitness for binding NBS DNA” value is at most 0.2.
Regarding LAQS, the “one-hybrid fitness for binding NBS DNA” value was at most 0.2.
For the variant RPMH, the “one-hybrid fitness for binding NBS DNA” value was at most 0.2.
In the case of GPGS it was at most 0.2; in that of SWPI, at most 0.2; in that of TTVC, at most 0.2.
Regarding WWSC, the “one-hybrid fitness for binding NBS DNA” value is at most 0.2.
Take KQNS: the “one-hybrid fitness for binding NBS DNA” value was at most 0.2.
Regarding LRRP, the “one-hybrid fitness for binding NBS DNA” value was at most 0.2.
TRWN: the “one-hybrid fitness for binding NBS DNA” value is at most 0.2.
The value for FLSA was at most 0.2.
As for RGPE, the “one-hybrid fitness for binding NBS DNA” value was at most 0.2.
As to ARKL, the “one-hybrid fitness for binding NBS DNA” value is at most 0.2.
In the case of CGVR it was at most 0.2; in that of TPEN, at most 0.2; in that of QTNH, 0.495.
With WVTS, the “one-hybrid fitness for binding NBS DNA” value was at most 0.2.
CANM: the “one-hybrid fitness for binding NBS DNA” value is at most 0.2.
Consider AATS, for which the “one-hybrid fitness for binding NBS DNA” value is at most 0.2.
Turning to ITTW, the “one-hybrid fitness for binding NBS DNA” value was at most 0.2.
The value for REMS was at most 0.2; that for RLYY was at most 0.2.
With PGCM, the “one-hybrid fitness for binding NBS DNA” value was at most 0.2.
Take EAQG: the “one-hybrid fitness for binding NBS DNA” value is at most 0.2.
In the case of HSRN it was at most 0.2.
In the case of IKKC, the “one-hybrid fitness for binding NBS DNA” value was at most 0.2.
In the case of SKHR it was at most 0.2; in that of KYQK, at most 0.2; in that of IDVM, at most 0.2.
With TLSD, the “one-hybrid fitness for binding NBS DNA” value is at most 0.2.
For AKDG, the “one-hybrid fitness for binding NBS DNA” value is at most 0.2.
In the case of TRDG it was at most 0.2; in that of MPQG, at most 0.2; in that of YKPY, at most 0.2.
In the case of QPAA it was at most 0.2; in that of KADW, at most 0.2.
Turning to IPYG, the “one-hybrid fitness for binding NBS DNA” value is at most 0.2.
In the case of FRMS it was at most 0.2; in that of AALV, at most 0.2.
As to QKYS, the “one-hybrid fitness for binding NBS DNA” value was 0.43.
In the case of SESG it was at most 0.2; in that of EWQK, at most 0.2.
KLNN: the “one-hybrid fitness for binding NBS DNA” value is at most 0.2.
Consider CVAD, for which the “one-hybrid fitness for binding NBS DNA” value was at most 0.2.
For the variant THLK, the “one-hybrid fitness for binding NBS DNA” value was at most 0.2.
Take GNCR: the “one-hybrid fitness for binding NBS DNA” value is at most 0.2.
The value for QPPD was at most 0.2; that for CNSG was at most 0.2; that for QVGW was at most 0.2.
Regarding RQSK, the “one-hybrid fitness for binding NBS DNA” value is at most 0.2.
For the variant QDNF, the “one-hybrid fitness for binding NBS DNA” value was at most 0.2.
Regarding NGNR, the “one-hybrid fitness for binding NBS DNA” value is at most 0.2.
Turning to HHTP, the “one-hybrid fitness for binding NBS DNA” value was at most 0.2.
As to SNFT, the “one-hybrid fitness for binding NBS DNA” value was at most 0.2.
Regarding PEAW, the “one-hybrid fitness for binding NBS DNA” value was at most 0.2.
Turning to VRRW, the “one-hybrid fitness for binding NBS DNA” value was at most 0.2.
For PAFT, the “one-hybrid fitness for binding NBS DNA” value is at most 0.2.
As to NGRD, the “one-hybrid fitness for binding NBS DNA” value was at most 0.2.
On to LNVR, for which the “one-hybrid fitness for binding NBS DNA” value is at most 0.2.
Turning to PIPI, the “one-hybrid fitness for binding NBS DNA” value was at most 0.2.
Regarding VWNS, the “one-hybrid fitness for binding NBS DNA” value was at most 0.2.
Consider AHNS, for which the “one-hybrid fitness for binding NBS DNA” value was at most 0.2.
Consider LHCG, for which the “one-hybrid fitness for binding NBS DNA” value is at most 0.2.
On to LSVI, for which the “one-hybrid fitness for binding NBS DNA” value is at most 0.2.
The value for MCLL was at most 0.2; that for YSTY was at most 0.2; that for YMCS was at most 0.2.
With TRNV, the “one-hybrid fitness for binding NBS DNA” value is at most 0.2.
KESF: the “one-hybrid fitness for binding NBS DNA” value was at most 0.2.
For the variant QTGL, the “one-hybrid fitness for binding NBS DNA” value is at most 0.2.
Regarding TPGD, the “one-hybrid fitness for binding NBS DNA” value is at most 0.2.
Turning to TGRF, the “one-hybrid fitness for binding NBS DNA” value is at most 0.2.
In the case of SNWL, the “one-hybrid fitness for binding NBS DNA” value is at most 0.2.
On to QYLE, for which the “one-hybrid fitness for binding NBS DNA” value was at most 0.2.
RYAM: the “one-hybrid fitness for binding NBS DNA” value was at most 0.2.
For the variant VRIM, the “one-hybrid fitness for binding NBS DNA” value was at most 0.2.
Regarding QGGT, the “one-hybrid fitness for binding NBS DNA” value was at most 0.2.
GGRA: the “one-hybrid fitness for binding NBS DNA” value was at most 0.2.
Regarding KGPG, the “one-hybrid fitness for binding NBS DNA” value was at most 0.2.
TMIK: the “one-hybrid fitness for binding NBS DNA” value is at most 0.2.
Take PFTQ: the “one-hybrid fitness for binding NBS DNA” value was at most 0.2.
For the variant WQTG, the “one-hybrid fitness for binding NBS DNA” value is at most 0.2.
On to TLEF, for which the “one-hybrid fitness for binding NBS DNA” value was at most 0.2.
The value for VCFE was at most 0.2.
As to ALAM, the “one-hybrid fitness for binding NBS DNA” value was at most 0.2.
Regarding SARK, the “one-hybrid fitness for binding NBS DNA” value was at most 0.2.
The value for SAFA was at most 0.2.
Consider QNWD, for which the “one-hybrid fitness for binding NBS DNA” value is at most 0.2.
QRQH: the “one-hybrid fitness for binding NBS DNA” value came out at 0.544.
In the case of SGSL, the “one-hybrid fitness for binding NBS DNA” value is at most 0.2.
For the variant PCVC, the “one-hybrid fitness for binding NBS DNA” value was at most 0.2.
For VDHF, the “one-hybrid fitness for binding NBS DNA” value is at most 0.2.
With NQLE, the “one-hybrid fitness for binding NBS DNA” value was at most 0.2.
The value for NCPF was at most 0.2.
In the case of MWEC it was at most 0.2; in that of HRHK, at most 0.2; in that of CTQG, at most 0.2.
The value for FGKF was at most 0.2; that for QHQS was 0.394.
Regarding GPTT, the “one-hybrid fitness for binding NBS DNA” value is at most 0.2.
With GVIC, the “one-hybrid fitness for binding NBS DNA” value was at most 0.2.
For the variant WRGA, the “one-hybrid fitness for binding NBS DNA” value is at most 0.2.
CWAS: the “one-hybrid fitness for binding NBS DNA” value was at most 0.2.
IWSS: the “one-hybrid fitness for binding NBS DNA” value is at most 0.2.
LRKV: the “one-hybrid fitness for binding NBS DNA” value was at most 0.2.
With DQMC, the “one-hybrid fitness for binding NBS DNA” value is at most 0.2.
Turning to AKYA, the “one-hybrid fitness for binding NBS DNA” value was at most 0.2.
In the case of KAAQ, the “one-hybrid fitness for binding NBS DNA” value is at most 0.2.
